Laboratory results taken from article PMC4336329 (PLoS ONE, 2015).
The campaign covered roughly 310,000 compounds. About 14,000 (4.5%) showed an effect of 50% or more. The effect is printed as a negative number. The list shows a part of the results.

Target: human ether-à-go-go-related gene (hERG) potassium channel (human, UniProt Q12809)
Experiment: primary screen, population patch clamp on CHO cells stably expressing hERG
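Note: peak tail current of the secondary pulse compared with the same well before compound.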

Chain of human ether-à-go-go-related gene (hERG) potassium channel (Q12809 whole entry, looked up): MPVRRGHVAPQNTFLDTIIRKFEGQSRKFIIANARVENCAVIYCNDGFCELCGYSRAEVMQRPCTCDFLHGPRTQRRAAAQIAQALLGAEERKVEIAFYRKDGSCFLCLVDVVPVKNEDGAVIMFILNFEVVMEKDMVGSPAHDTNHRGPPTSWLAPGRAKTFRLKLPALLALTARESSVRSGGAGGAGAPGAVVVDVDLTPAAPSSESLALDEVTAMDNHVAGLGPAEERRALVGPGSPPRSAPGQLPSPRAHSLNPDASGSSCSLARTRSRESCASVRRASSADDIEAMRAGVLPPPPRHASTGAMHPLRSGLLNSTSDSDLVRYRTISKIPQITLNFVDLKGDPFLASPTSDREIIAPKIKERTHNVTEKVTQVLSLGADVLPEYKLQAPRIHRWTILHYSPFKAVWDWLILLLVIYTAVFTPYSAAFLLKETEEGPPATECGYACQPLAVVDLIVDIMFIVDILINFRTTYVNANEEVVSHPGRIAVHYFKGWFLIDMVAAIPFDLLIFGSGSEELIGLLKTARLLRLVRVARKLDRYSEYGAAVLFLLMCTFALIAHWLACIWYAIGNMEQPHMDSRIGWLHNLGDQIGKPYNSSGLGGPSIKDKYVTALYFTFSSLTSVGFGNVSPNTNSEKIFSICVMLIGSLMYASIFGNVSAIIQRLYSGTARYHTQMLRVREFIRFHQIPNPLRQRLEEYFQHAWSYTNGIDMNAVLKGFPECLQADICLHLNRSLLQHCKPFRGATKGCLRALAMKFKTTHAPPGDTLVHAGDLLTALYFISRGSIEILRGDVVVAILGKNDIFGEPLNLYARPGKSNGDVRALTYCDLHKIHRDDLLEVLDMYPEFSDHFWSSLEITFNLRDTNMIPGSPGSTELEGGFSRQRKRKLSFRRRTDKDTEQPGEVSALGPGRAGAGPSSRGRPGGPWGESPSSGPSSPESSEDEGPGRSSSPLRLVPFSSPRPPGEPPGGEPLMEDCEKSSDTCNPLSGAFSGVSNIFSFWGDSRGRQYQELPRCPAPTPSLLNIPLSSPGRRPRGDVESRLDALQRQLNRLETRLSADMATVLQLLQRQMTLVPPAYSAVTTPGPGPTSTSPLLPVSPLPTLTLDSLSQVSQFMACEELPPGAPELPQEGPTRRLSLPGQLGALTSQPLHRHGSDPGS

Going from O=C(O)c1cc(-c2ccc(N3CCOCC3)cc2)nn1-c1ccc(F)cc1F to Cc1ccc2cc(C)c(N3CCN(c4ccc(F)cc4)CC3)nc2c1, the “hERG current change (%, negative = inhibition) at 10uM” value falls from 12.7% to 9.96%.

Compared with O=C(Nc1ccnn1C1CCN(CC(O)CO)CC1)C1CCCC1 (centres unmarked), CCOC(=O)c1ccccc1NC(=S)N1CCCCC1 is lower in “hERG current change (%, negative = inhibition) at 10uM” value: 11.4% for the first, -20.2% for the second.

Compared with CNC(=O)COc1ccc(S(=O)(=O)Nc2ccccc2)cc1, COc1ccc(S(=O)(=O)Nc2ccccc2-c2nnn(CC(=O)Nc3ccccc3OC)n2)cc1 is lower in “hERG current change (%, negative = inhibition) at 10uM” value: 14.4% for the first, 5.49% for the second.

Compared with O=C(OCC(=O)N1CCCC1)c1c(Cl)ccc(Cl)c1Cl, Cc1ccccc1OCCC(=O)OCC(=O)Nc1cc(S(=O)(=O)N2CCOCC2)ccc1Cl is lower in “hERG current change (%, negative = inhibition) at 10uM” value: -9.3% for the first, -27.8% for the second.

First: CCCn1c(=O)c(C(=O)NNS(=O)(=O)c2ccc(Cl)cc2)c(O)c2ccccc21
Second: CC(C)c1ccc(S(=O)(=O)N2CCN(C(=O)CN3C(=O)NC(C)(c4ccccc4)C3=O)CC2)cc1 (centres unmarked)
The “hERG current change (%, negative = inhibition) at 10uM” value of the first is higher: -11.3% for the first, -31.6% for the second.

First: COc1ccc(NC(=O)CSc2nc3ccccc3c(=O)n2CCCC(=O)NCC2CCCO2)c(OC)c1 (centres unmarked)
Second: COc1ccc(CCNC(=O)CCSc2nc(-c3ccco3)cc(C(F)(F)F)n2)cc1OC
The “hERG current change (%, negative = inhibition) at 10uM” value of the first is lower: -33.8% for the first, -6.21% for the second.

Compared with CN(C)c1ccc(NC(=O)c2ccc3nc[nH]c3c2)cc1, COc1ccc(NC(=O)CC(c2ccco2)C(C)C)cc1 (centres unmarked) is higher in “hERG current change (%, negative = inhibition) at 10uM” value: 17.7% for the first, 24.7% for the second.

Going from CC1CCCCN1CC(=O)Nc1ccc(Oc2ccccc2)cc1.Cl (centres unmarked) to Cl.Cn1c2c(c3ccccc31)CCN1CCC[C@]21c1ccccc1, the “hERG current change (%, negative = inhibition) at 10uM” value falls from -50.7% to -60.7%.

Going from Cc1cc(C)n(C(=O)CNC(=O)c2cccc(Br)c2)n1 to O=C(N/N=C/c1cc(O)ccc1Br)c1cccnc1, the “hERG current change (%, negative = inhibition) at 10uM” value rises from -22.6% to 12.4%.

Compared with CC(NC(=O)c1ccccc1NC(=O)c1ccccc1)C(=O)N1CCOCC1 (centres unmarked), Cc1ccccc1C(=O)OC(C)CN1CCOCC1.Cl (centres unmarked) is lower in “hERG current change (%, negative = inhibition) at 10uM” value: -12.2% for the first, -28.8% for the second.

First: CCOc1ccc(NC(=O)CSc2nnc(Cn3cnc([N+](=O)[O-])n3)n2C)cc1
Second: CCc1nnc(NC(=O)CSc2nnc(-c3ccccc3OC)n2-c2ccccc2)s1
The “hERG current change (%, negative = inhibition) at 10uM” value of the first is higher: 12.9% for the first, 2.59% for the second.

First: COc1ccc(N(C)C(=O)c2cn(C)c(=O)c3cc(OC)c(OC)cc23)cc1
Second: COc1ccc(-c2cc(C(=O)Nc3cnn(Cc4ccccc4C)c3)no2)cc1OC
The “hERG current change (%, negative = inhibition) at 10uM” value of the first is higher: 21.1% for the first, -6.07% for the second.

First: O=C(CCCN1C(=O)/C(=C\c2cccs2)SC1=S)Nc1cccnc1
Second: CCCC(=O)Nc1ccc(NC(=O)c2cccs2)cn1
The “hERG current change (%, negative = inhibition) at 10uM” value of the first is higher: 13.1% for the first, -0.0941% for the second.

Going from C=CCC1NS(=O)(=O)O[C@H](CCCC)[C@@H]1O (some centres unmarked) to CCCCNC(=O)CN(c1cc(C(F)(F)F)ccc1Cl)S(C)(=O)=O, the “hERG current change (%, negative = inhibition) at 10uM” value falls from 7.06% to -8.01%.

Going from Cc1ccc(OCc2nnc(-c3ccc(Cl)cc3)o2)cc1 to COc1ccc(-c2noc(-c3cc4ccccc4oc3=O)n2)cc1, the “hERG current change (%, negative = inhibition) at 10uM” value rises from 3.86% to 8.56%.

First: COc1ccc(/C=N/NC(=O)COc2cccc3cccnc23)cc1OC
Second: COc1ccc(-c2cc(C(F)(F)F)n3nc(C(=O)N4CCCCC4)cc3n2)cc1OC
The “hERG current change (%, negative = inhibition) at 10uM” value of the first is lower: 2.38% for the first, 6.62% for the second.

Compared with CC1Cc2cc(/C(O)=C3/C(=O)C(=O)N(Cc4cccnc4)C3c3cccc(O)c3)ccc2O1 (centres unmarked), Cc1nnc(N2C(=O)C(O)=C(C(=O)c3ccco3)C2c2cccc([N+](=O)[O-])c2)s1 (centres unmarked) is lower in “hERG current change (%, negative = inhibition) at 10uM” value: 19.2% for the first, 7.75% for the second.

Going from CC(CCc1ccccc1)NC(=O)COC(=O)c1cccn1C (centres unmarked) to Cc1ccccc1-c1nc(CS(=O)CC(=O)NC(C)CCc2ccccc2)c(C)o1 (centres unmarked), the “hERG current change (%, negative = inhibition) at 10uM” value falls from -5.24% to -6.61%.

Compared with O=C(CCNS(=O)(=O)c1ccc(Br)s1)NCc1ccc(F)cc1, Cc1cc(C)n2nc(CNS(=O)(=O)c3ccc(CC(C)C)cc3)nc2n1 is lower in “hERG current change (%, negative = inhibition) at 10uM” value: -8.51% for the first, -47.1% for the second.

First: O=C(N/N=C/c1ccccn1)NC12CC3CC(CC(C3)C1)C2
Second: N=c1oc2ccc(Cl)cc2cc1C(=O)NC1CCCCCC1
The “hERG current change (%, negative = inhibition) at 10uM” value of the first is lower: -3.1% for the first, 5.98% for the second.

Compared with N#Cc1cc([N+](=O)[O-])ccc1N1CCN(c2ccccc2O)CC1, O=C1NC(=Nc2ccccc2)S/C1=C\c1ccccc1 is higher in “hERG current change (%, negative = inhibition) at 10uM” value: -35% for the first, 10.2% for the second.

Going from CCn1cc(C(=O)N[C@@H](C)C(=O)NCCCn2ccnc2)c(=O)c2cc3c(cc21)OCO3 to CCCCn1c(N)c(N(CCOC)C(=O)C2CC(=O)N(c3ccc(CC)cc3)C2)c(=O)[nH]c1=O (centres unmarked), the “hERG current change (%, negative = inhibition) at 10uM” value falls from 6.29% to -4.12%.
